Data on 2 molecules can be found in article PMC6744581.

The target in experiment [1] is T1, myc-RhoBTB1 (human) (UniProt O94844).
T1 sequence: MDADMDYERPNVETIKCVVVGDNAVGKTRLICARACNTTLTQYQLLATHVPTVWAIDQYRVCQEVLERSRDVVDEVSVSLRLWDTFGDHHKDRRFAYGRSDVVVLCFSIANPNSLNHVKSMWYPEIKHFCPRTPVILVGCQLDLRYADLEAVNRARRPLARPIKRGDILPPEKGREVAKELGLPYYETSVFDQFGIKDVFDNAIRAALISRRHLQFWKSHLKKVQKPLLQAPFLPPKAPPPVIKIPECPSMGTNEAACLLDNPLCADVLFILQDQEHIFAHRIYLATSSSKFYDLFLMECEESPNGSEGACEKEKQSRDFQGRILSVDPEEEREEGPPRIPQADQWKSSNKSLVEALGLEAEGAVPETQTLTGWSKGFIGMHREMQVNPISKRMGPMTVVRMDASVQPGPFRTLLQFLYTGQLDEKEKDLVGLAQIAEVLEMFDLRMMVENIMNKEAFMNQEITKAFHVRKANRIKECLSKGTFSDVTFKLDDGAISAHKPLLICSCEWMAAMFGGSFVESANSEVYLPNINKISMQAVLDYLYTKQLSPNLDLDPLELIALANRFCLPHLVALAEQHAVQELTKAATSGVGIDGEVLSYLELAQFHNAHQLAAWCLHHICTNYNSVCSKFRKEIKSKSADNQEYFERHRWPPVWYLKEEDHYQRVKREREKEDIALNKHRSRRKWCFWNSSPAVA
The experiment in a line: co-IP; COS7 cells co-transfected with myc-RhoBTB1 and GFP-RhoBTB1, lysed after 24 h; anti-myc-agarose beads; blots for myc and GFP.

Experiment [2] deals with T2, GFP-RhoBTB1 (human) (UniProt O94844).
T2 sequence: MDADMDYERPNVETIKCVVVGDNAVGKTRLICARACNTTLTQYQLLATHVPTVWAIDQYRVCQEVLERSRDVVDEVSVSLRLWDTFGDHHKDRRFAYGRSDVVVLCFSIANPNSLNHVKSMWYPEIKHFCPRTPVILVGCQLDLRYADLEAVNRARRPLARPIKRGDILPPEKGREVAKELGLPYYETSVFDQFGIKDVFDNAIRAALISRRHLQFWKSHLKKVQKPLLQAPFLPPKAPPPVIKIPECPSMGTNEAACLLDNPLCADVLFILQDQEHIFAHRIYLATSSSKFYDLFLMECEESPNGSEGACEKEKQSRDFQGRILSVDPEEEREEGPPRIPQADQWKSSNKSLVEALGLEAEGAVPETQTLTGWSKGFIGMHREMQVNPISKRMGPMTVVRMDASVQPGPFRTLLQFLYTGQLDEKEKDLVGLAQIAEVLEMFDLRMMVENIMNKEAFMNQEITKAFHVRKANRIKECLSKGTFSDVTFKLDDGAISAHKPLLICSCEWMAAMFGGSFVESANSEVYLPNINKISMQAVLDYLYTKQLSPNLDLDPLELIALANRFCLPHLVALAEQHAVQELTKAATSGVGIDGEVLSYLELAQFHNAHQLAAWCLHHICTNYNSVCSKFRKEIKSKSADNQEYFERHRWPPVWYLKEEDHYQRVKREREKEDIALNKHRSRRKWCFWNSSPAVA
The experiment in a line: co-IP; COS7 cells co-transfected, lysed after 24 h in IP lysis buffer (1% Triton X-100, 20 mM Tris pH 8, 130 mM NaCl, 1 mM DTT); GFP fusion held on GFP-trap beads; blots for myc or HA and GFP.

No constants are given. Whether binding was seen depends on the method and setting. In cells and extracts the contact can be indirect. Some entries that bind do so weakly or less than the wild type. Sequences can lack the tags named with a protein.

B1: GFP-RhoBTB1 (protein, UniProt O94844 1-696)
chain: MDADMDYERPNVETIKCVVVGDNAVGKTRLICARACNTTLTQYQLLATHVPTVWAIDQYRVCQEVLERSRDVVDEVSVSLRLWDTFGDHHKDRRFAYGRSDVVVLCFSIANPNSLNHVKSMWYPEIKHFCPRTPVILVGCQLDLRYADLEAVNRARRPLARPIKRGDILPPEKGREVAKELGLPYYETSVFDQFGIKDVFDNAIRAALISRRHLQFWKSHLKKVQKPLLQAPFLPPKAPPPVIKIPECPSMGTNEAACLLDNPLCADVLFILQDQEHIFAHRIYLATSSSKFYDLFLMECEESPNGSEGACEKEKQSRDFQGRILSVDPEEEREEGPPRIPQADQWKSSNKSLVEALGLEAEGAVPETQTLTGWSKGFIGMHREMQVNPISKRMGPMTVVRMDASVQPGPFRTLLQFLYTGQLDEKEKDLVGLAQIAEVLEMFDLRMMVENIMNKEAFMNQEITKAFHVRKANRIKECLSKGTFSDVTFKLDDGAISAHKPLLICSCEWMAAMFGGSFVESANSEVYLPNINKISMQAVLDYLYTKQLSPNLDLDPLELIALANRFCLPHLVALAEQHAVQELTKAATSGVGIDGEVLSYLELAQFHNAHQLAAWCLHHICTNYNSVCSKFRKEIKSKSADNQEYFERHRWPPVWYLKEEDHYQRVKREREKEDIALNKHRSRRKWCFWNSSPAVA
B1: the binding result in experiment [1] is listed as “binds”.

B2: myc-ROCK2^1–436 (domain or fragment, UniProt Q28021 1-436)
chain: MSRPPPTGKMPGAPEAVSGDGAGASRQRKLEALIRDPRSPINVESLLDGLNPLVLDLDFPALRKNKNIDNFLNRYEKIVKKIRGLQMKAEDYDVVKVIGRGAFGEVQLVRHKASQKVYAMKLLSKFEMIKRSDSAFFWEERDIMAFANSPWVVQLFCAFQDDKYLYMVMEYMPGGDLVNLMSNYDVPEKWAKFYTAEVVLALDAIHSMGLIHRDVKPDNMLLDKHGHLKLADFGTCMKMDETGMVHCDTAVGTPDYISPEVLKSQGGDGYYGRECDWWSVGVFLFEMLVGDTPFYADSLVGTYSKIMDHKNSLCFPEDAEISKHAKNLICAFLTDREVRLGRNGVEEIKQHPFFKNDQWNWDNIRETAAPVVPELSSDIDSSNFDDIEDDKGDVETFPIPKAFVGNQLPFIGFTYYRENLLLSDSPSCKENDSIQS
Take B2: the binding entry in experiment [2] is given as “binds”.
